# Hit rate of the full screen: of about 220,000 compounds, about 16,000 (7.3%) were called active. The shares of active, inactive and inconclusive entries below differ from those in the screen. Calls follow the shape of the dose curve; as a rule, active = well fitted inhibition curve with a large enough effect (not every such curve was filed as active); inconclusive = small, poorly fitted or top-dose-only effect, or another doubt; inactive = no such curve, though single readings can be large or run the other way. Potencies of inconclusive entries are left out as doubtful fits.
# Target: Aldehyde dehydrogenase 1A1 (Homo sapiens) (UniProt P00352)
# Assay: qHTS Assay for Inhibitors of Aldehyde Dehydrogenase 1 (ALDH1A1)
# Settings: Purified ALDH1A1, NADH fluorescence, propionaldehyde substrate; series mostly up to 75.3 µM
# Potency is read from the fitted curve at half-maximal effect; tags tell the direction and shape of the fitted curve.
# Chain of UniProt P00352 (P00352 whole entry, looked up): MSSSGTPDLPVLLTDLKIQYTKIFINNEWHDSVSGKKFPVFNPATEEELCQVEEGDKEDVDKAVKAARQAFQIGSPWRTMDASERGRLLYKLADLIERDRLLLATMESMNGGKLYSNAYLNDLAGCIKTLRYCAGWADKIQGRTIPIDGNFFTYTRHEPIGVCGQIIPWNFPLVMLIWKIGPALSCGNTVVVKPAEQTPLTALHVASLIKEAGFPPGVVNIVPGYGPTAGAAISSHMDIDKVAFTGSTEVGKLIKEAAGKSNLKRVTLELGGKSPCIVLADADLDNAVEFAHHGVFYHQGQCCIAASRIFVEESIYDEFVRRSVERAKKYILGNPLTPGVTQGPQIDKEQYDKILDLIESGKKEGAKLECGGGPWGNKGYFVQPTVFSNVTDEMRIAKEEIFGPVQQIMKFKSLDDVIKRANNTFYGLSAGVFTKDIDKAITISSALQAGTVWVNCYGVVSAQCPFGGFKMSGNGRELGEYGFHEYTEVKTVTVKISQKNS
row,Compound,Potency
1,CCOc1cccc(/C(O)=C2/C(=O)C(=O)N(CCN3CCOCC3)C2c2ccncc2)c1 (stereo not drawn),active: 22.4 µM
2,Cc1ccc(-c2noc(CCC(=O)NCCN3CCOCC3)n2)cc1,inactive
3,Cc1ccc2cccc(SCC(=O)N3CCOCC3)c2n1,"inconclusive [inhibitor, partial curve]"
4,N#C/C(=C(/O)c1ccc(-c2cccc([N+](=O)[O-])c2)o1)c1nc2ccccc2s1,"inconclusive [inhibitor, single point]"
5,CNc1nc(CC(C)=O)ns1,inactive
6,COC(=O)Cc1c[nH]c2cccc(OCC(O)CN(Cc3ccc([N+](=O)[O-])cc3)C(C)(C)C)c12 (stereo not drawn),active: 25.1 µM
7,CCSc1nnc(C)c(=O)n1COC(=O)c1ccc(S(=O)(=O)N2CCCC2)cc1,inactive
8,COC(=O)Nc1nc(C)c(C(=O)N(C)C)s1,inactive
9,Cc1sc2ncn(CC(=O)NCCCC(=O)N3CCN(c4ccccn4)CC3)c(=O)c2c1C,"inconclusive [inhibitor, single point]"
10,c1ccc2c(CNc3ccc(CNc4ncn[nH]4)cc3)cccc2c1,"inconclusive [inhibitor, single point]"
11,CSc1ncccc1C(=O)OCC(=O)Nc1cc(C(F)(F)F)ccc1N1CCOCC1,inactive
12,COc1cc(C2Nc3ccc4ncccc4c3C3=C2C(=O)CCC3)ccc1O (stereo not drawn),inactive
13,NS(=O)(=O)c1ccc(NC(=S)NC(=O)/C=C/c2ccco2)cc1,"inconclusive [inhibitor, single point]"
14,O=C(c1cc(-c2ccc(Cl)cc2Cl)on1)N1CCOCC1,inactive
15,CC1(C)CC(N2CCN(CCO)CC2)=CC(=S)N1,"inconclusive [inhibitor, partial curve, poor fit]"
16,Clc1ccc(N/N=C/c2cccnc2)cc1,active: 25.1 µM
17,COc1cccc(-c2coc3ccc(Br)cc3c2=O)c1,inactive
18,CCn1cc(/C=C/C(=O)Nc2ccn(Cc3c(F)c(F)cc(F)c3F)n2)cn1,"inconclusive [inhibitor, single point]"
19,COc1ccc(/C=N/N=C2/NC(=O)C(CC(=O)O)S2)cc1OCc1ccc(Cl)cc1 (stereo not drawn),"inconclusive [inhibitor, single point]"
20,O=C1NCCCC1C(=O)N/N=C/c1ccccc1O (stereo not drawn),inactive
21,COc1ccc(-c2cc(C(F)F)n3ncc(C(=O)N4CCN(C(=O)c5ccco5)CC4)c3n2)cc1,"inconclusive [inhibitor, partial curve]"
22,CN=C1CC(SC)=C1c1ccc(C)cc1,inactive
23,CC(=O)c1ccc(Sc2ccccc2)cc1,"inconclusive [inhibitor, partial curve]"
24,O=C(CCc1ccccc1)Nc1nn[nH]n1,inactive
25,CCOC(=O)C(C)Sc1ccc2nnc(-c3ccc(F)cc3)n2n1 (stereo not drawn),"inconclusive [inhibitor, single point]"

row,Compound,Potency
1,N#Cc1ccc(COC(=O)c2ccc(N3CCCC3)c([N+](=O)[O-])c2)cc1,"inconclusive [inhibitor, single point]"
2,Cc1ccc(-n2c(SCC(=O)N/N=C/c3c(C)nn(-c4ccccc4)c3C)nc3ccccc3c2=O)cc1,"inconclusive [inhibitor, full curve, poor fit]"
3,Cc1cc2cc(C)c(SCC(=O)NCc3ccco3)nc2cc1C,inactive
4,O=C(Nc1ccc(Cl)cc1)Nc1nnc(CSCc2ccc(Cl)cc2)s1,inactive
5,O=c1c2ccccc2[nH]c2ccc(F)cc12,"inconclusive [inhibitor, partial curve]"
6,O=C(O)c1cccc(COc2ccccc2Cl)c1,inactive
7,NNc1nc(Nc2ccccc2)nc(Nc2ccccc2)n1,inactive
8,CCOC(=O)N1CCC(NCc2c(C(=O)N(C)Cc3ccccc3)nc3ccccn23)CC1,"inconclusive [inhibitor, single point]"
9,O=C(Sc1cccc2cccnc12)c1ccc(F)cc1,"inconclusive [inhibitor, single point]"
10,O=c1oc2cc(Cl)ccc2n1CSc1nc2ccccc2s1,"inconclusive [inhibitor, single point]"
11,Cc1nnc(SCC(=O)N/N=C/c2cn(-c3ccccc3)nc2-c2ccc(F)cc2)n1-c1ccccc1,"inconclusive [inhibitor, single point]"
12,O=C(COC(=O)C1=Cc2ccccc2OC1)NCc1ccco1,inactive
13,COc1ccc(C(O)c2nc3ccccc3s2)cc1 (stereo not drawn),inactive
14,CCCC(=O)NCCc1cc2ccc(C)c(C)c2[nH]c1=O,"inconclusive [inhibitor, partial curve, poor fit]"
15,COc1cccc(NC(=S)NNC(=O)Cn2nc(C(F)(F)F)cc2C)c1,"inconclusive [inhibitor, single point]"
16,CCC(C)n1c(C)nc2c(c1=O)c1nc3ccccc3nc1n2CCC1=CCCCC1 (stereo not drawn),"inconclusive [inhibitor, single point]"
17,COc1cccc(NC(=O)C2C3CCC4C(CCC32)C4(Cl)Cl)c1 (stereo not drawn),active: 7.94 µM
18,CC1CN(C(=O)COC(=O)c2ccc(N)c([N+](=O)[O-])c2)CC(C)O1 (stereo not drawn),"inconclusive [inhibitor, single point]"
19,CS/C(=N\S(=O)(=O)c1cccs1)Nc1ccc(N2CCOCC2)cc1,"inconclusive [inhibitor, single point]"
20,O=C(NCCOC(=O)c1ccc(C(=O)OCCNC(=O)c2ccccc2)o1)c1ccccc1,"inconclusive [inhibitor, single point]"
21,COc1cccc(/C(O)=C2\C(=O)C(=O)N(c3ccccn3)C2c2cccc(OC)c2OC)c1 (stereo not drawn),"inconclusive [inhibitor, single point]"
22,COc1ccc(CCNC(=O)CSC(=O)c2ccccc2)cc1OC,"inconclusive [inhibitor, single point]"
23,Cc1coc(C)c1C(=O)CC1(O)C(=O)Nc2cc(Cl)cc(Cl)c21 (stereo not drawn),active: 3.16 µM
24,O=C1CN(c2nc(-c3cccnc3)nc3sc4c(c23)CCCC4)CCN1,"inconclusive [inhibitor, single point]"
25,CN(CC(=O)NCCC1=CCCCC1)S(=O)(=O)c1ccc2c(c1)c(=O)n(C)c(=O)n2C,active: 31.6 µM

row,Compound,Potency
1,c1ccc2c(N3CCOCC3)nc(N3CCOCC3)nc2c1,"inconclusive [inhibitor, partial curve]"
2,CCC(=O)N(CCC(c1ccccc1)c1ccco1)Cc1cccs1 (stereo not drawn),active: 8.91 µM
3,CC(Nc1nc(N2CCN(S(C)(=O)=O)CC2)nc2ccccc12)c1ccccc1 (stereo not drawn),"inconclusive [inhibitor, single point]"
4,CC1CCN(CC(O)COCCC23CC4CC(CC(C4)C2)C3)CC1 (stereo not drawn),inactive
5,COc1cc(C(=O)N2CCN(c3ccccc3)CC2)c([N+](=O)[O-])cc1OC,inactive
6,Cc1cc(-c2nc3cccnc3s2)ccc1NS(=O)(=O)c1ccc2c(c1)OCCO2,"inconclusive [inhibitor, partial curve]"
7,COC(=O)c1ccccc1NC1OC(=O)c2ccccc21 (stereo not drawn),"inconclusive [inhibitor, single point]"
8,CCOC(=O)c1c(C)[nH]c(C(=O)N/N=C\c2ccccc2Cl)c1C,inactive
9,CCN(CC)S(=O)(=O)c1ccc(N2CCCCC2)c(NC(=O)/C=C/c2ccc(OC)c(OC)c2)c1,"inconclusive [inhibitor, partial curve]"
10,CNC(=S)Nc1ccc([N+](=O)[O-])cc1C,"inconclusive [inhibitor, single point]"
11,CCCCOc1[nH]c2nc(-c3ccco3)n(Cc3ccco3)c(=N)c2c1C#N,"inconclusive [inhibitor, single point]"
12,Cc1ccc(-n2c([O-])nc(-[n+]3ccccc3)c2C=O)cc1,active: 8.91 µM
13,CCn1c2ccccc2c2cc(CN3CCN(C(=O)c4ccco4)CC3)ccc21,"inconclusive [inhibitor, partial curve]"
14,O=C(NCc1ccco1)c1ccc(-c2cccc(Cl)c2)o1,"inconclusive [inhibitor, partial curve]"
15,OC1CN=C2C=CC=CN2C1 (stereo not drawn),"inconclusive [inhibitor, partial curve]"
16,CCOC(=O)C1=C(c2ccccc2)N=C2SCC(=O)N2C1c1ccc(OC)c(OC)c1 (stereo not drawn),inactive
17,CCN(CC)S(=O)(=O)c1cccc(S(=O)(=O)c2cccc(S(=O)(=O)N(CC)CC)c2)c1,"inconclusive [inhibitor, partial curve]"
18,Cn1cc([N+](=O)[O-])c(C(=O)Nc2ccc3nc(-c4ccccc4)[nH]c3c2)n1,"inconclusive [inhibitor, single point]"
19,COc1ccc(N2C(=O)CC(Nc3ccc(C(=O)O)cc3)C2=O)cc1OC (stereo not drawn),"inconclusive [inhibitor, single point]"
20,COc1ccccc1C(=O)N/C(=C\c1ccc(Br)cc1)C(=O)NCC(=O)O,inactive
21,COc1ccc2cc(/C(C)=N/NC(=O)c3cc(-c4cccnc4)nc4ccccc34)ccc2c1,"inconclusive [inhibitor, partial curve, poor fit]"
22,Oc1ccc(NCc2cccc(OCc3ccccc3)c2)cc1,"inconclusive [inhibitor, single point]"
23,COc1ccccc1-c1nn2c(-c3ccccc3Cl)nnc2s1,inactive
